# Data reported in the RNAGym collection of RNA variant scans (doi:10.7554/elife.90254).
# Read counts are not given, so values of variants with three or more changes are uncertain.
# B1: OR4K15 (parent)
# chain: GUUAACGGUCAUAGGCCAUGGAAACUAGGAGCACCAUUUCGCUGCCAGUGAAGAAAUGAACAAAGAAAAUCUGGGCCAGGCAGGCAUCAAAAGAAAUAGUCUUGCGCUCAACCAGAAAGUCUGUAAUCAUUUUAAGGGUA
# Variants of: B1
# Test: self-cleavage, relative activity (ratio to wild type); higher = more cleavage; in vitro, sequencing; the parent is a self-cleaving ribozyme
row,Variant,self-cleavage
1,GUUAACGGUCAUGGGCCAUGGAGACUAGGAGCACCAUUUCGCUGCCAGUGAAGAAAUGAACAAAGAAAAUCUGGGCCAGGCAGGCAUCCAAAGAAAUAGUCUUGCGCUCAACCAGAAAGUCUGUAAUCAUUUUAAGGGUA,0.45
2,GUUAACGGUCAUAGGCCAUGGAAACUAGGAGCACCAUUUCGCUGCCAGUGAAGAAGUGAACAAAGAAAAUCUGGGCCAGGCAGGCAUCAAAAGAAAUAGUCUUGCGCUCAGCCAGAAGGUCUGUAAUCAUUUUAAGGGUA,0.02
3,GUUAACGGUCAUAGGCCAUGGAAGCUAGGAGCACCAUUUCGCUGCCAUUGAAGAAAUGAACAAAGAAAAUCUGGGCCAGGCAGGCGUCAAAAGAAAUAGUCUUGCGCUCAACCAGAAAGUCUGUAAUCAUUUUAAGGGUA,0.61
4,GUUAACGGUCAUAGGCCAUGGAAACUAGGAGCGCCAUUUCGCUGCCAGUGAAGAAAUGAACAAAGAAGAUCUGGGCCAGGCAGGCAUCGAAAGAAAUAGUCUUGCGCUCAACCAGAAAGUCUGUAAUCAUUUUAAGGGUA,0.93
5,GUUAACGGUCAUGGGCCAUGGAAACUAGGAGCACCAUUUCGCUGCCAGUGAAGAAACGAACAAAGAGAAUCUGGGCCAGGCAGGCAUCAAAAGAAAUAGUCUUGCGCUCAACCAGAGAGUCUGUAAUCAUUUUAAGGGUA,0.87
6,GUUAGCGGCCAUAGGCCAUGGAAACUAGGUGCACCAUUUCGCUGCCAGUGAAGAGAUGAACAAAGAAAAUCUGGGCCAGGCAGGCAUCAAAAGAAAUAGUCUUGGGCUCUACCAGAAAGUCUGUAAUCAUUUUAAGGGUA,0.04
7,GUUAACGGUCAUAGGCCAUGGAGACUAGGAGCACCACUUCGCUGCCAGUGAAGAAAUGAACAAAGAAGAUCUGGGCCUGGCAGGCAUCAAAAGAAAUAGUCUUGCGCUCAACCGGAAAGUCUGUAAUCGUUUUAAGGGUA,0.06
8,GUUAGCGGUCAUAGGCCAUGGAAACUAGGAGCACCAUUUCGCCGCCAGUGAAGAGAUGAACAAAGAAAGUCAGGGCCAGGCAGGCAUCAAAAGAAAUAGUCUUGCGCUCAACCAGAAAGUCUGUAAUCAUUUUAAGGGUA,0.22
9,GUUAACGGUCAUAGGCCUUGGAAACUAGGAGCUCCAUUUCGCUGCCAGUGAAGAAAUGAACAAAGAAAAUCUGGGCCAGGCAGGCAUCAAAAGAAAUAGUCUUGCUCUCAACCAGAGAGUCUGUAAUCAUUUUAAGGGUA,0.01
10,GUUAACGGCCAUAGGCCAUGGAAACUAGGAGCACCAUUUCGCUGCCAGUGAAGAGAUGAACAAAGAAAAUCUGGGCCAGGCAGGCAUCAAAAGAAAUAGUCUUGCGCUCGACCGGAAAGUCUGUAAUCAUUUUAAGGGUA,0.16
11,GUUAACGGUCAUAGGCCAUGGAAACUAGGAGCACCAUUUUGCUGCCGGUGAAGAAAUGAACAAAGAAAAUCUGGGCCAGGCAGGCAUCAAAAGAAAUAGUCUUGCGCUCAACCAGGAAGUCUGUAAUCAUUUUAAGGGUA,0.6
12,GUUAACGGUCAUAGGCCAUGGAAACUAGGGGCACCAUUUCGCUGCCAGUGAAGAAAUGAACAGAGAAAAUCUGGGCCAGGCAGGCAUCAAAAGAAAUAGUCUUGCGCUCAACCGGAAAGUCUGUAAUCAUUUUAAGGGUA,0.5
13,GUUAGCGGUCAUAGGCCAUGGAGACUAGGAGCGCCAUUUCGCUGCCAGUGAAGAAAUGAACAAAGAGAAUCUGGGCCAGGCAGGCAUCAAAAGAAACAGUCUUGCGCCCAACCAGAAAGUCUGUAAUCAUUUUAAGGGUA,0.04
14,GUUAACGGCCAUAGGCCAUGGAAACUAGGAGCACCAUUACGCUGCCAGUGAGGAAAUGAACAAAGAAAAUCUGGGCCGGGCAGGCAUCAAAAGAAAUAGUCUUGCGCUCAACCAGAAGGUCUGUAAUCAUUUUAAGGGUA,0.49
15,GUUAACGGUCAUAGGCCAUGGAAACUAGGAGCACCACUUCGCUGCCAGUGAAGAGAUGAACAAAGAAAAUCUGGGCCAGGCAGGCAUCAAAGGAAAUAGUCUUGCGCUCAACCAGAAAGUCUGUAAUCAUUUUAAGGGUG,1.39
16,GUUAACGGUCAUAGGCCAUGGAAACUAGGAGCACCAUUUCGCUGCCAGUGAAGAAAUGAACAUAGAAAAUCUGGGCCAGGCAGGCAUCAAAAGAAAUAGUCCUGCGCUCAACCAGUAAGUCUGUAAUCAUUUUAAGGGUA,1.28
17,GUUAACGGUCAUAGGCCAUGGAAACUAGGAGCACCAUUUCGCUGCCAGUGAAGAAAUGAACAGAGAAGAUCUGGGCCAGGCAGGCUUCAAAAGAGAUAGUCUUGCGCUCAACCAGAAAGUCUGCAAUCAUUUUAAGGGUA,1.54
18,GUUAACGGUCAUAGGCCACGGGAACUAGGAGCACCAUUUCGCUGCCAGUGGAGAAAUGAACAAAGAAAAUCUGGGCCAGGCAGGCAUCGAAAGAAAUAGUCUUGCGCUCAACCAGAAAGUCUGUAAUCAUUUUAAGGGUA,0.69
19,GUUAACGGUCAUAGGCCAUGGAAACUAGGAGCACCAUUUCGCUACCAGUGAAGAGAUGAACAAAGAAAAUCUGGGCCAGGCAGGCAUCAAAAGAAAUAGUCCUGCGCUCAACCAGAAAGUCUGUAAUCAUUUUAAGGGUA,2.02
20,GUUAACGGUCAUUGGCCAUGGAAACUAGGAGCACCAUUUCGCAGCCAGUGACGGAAUGAACAAAGAAAAUCUGGGCCAGGCAGGCAUCAAAAGAAAUAGUCCUGCGCUCAGCCUGAAAGUCUGUAAUCAUUUUAAGGGUA,0.02
21,GUUAGCGGUCAUAGGCCAUGGAAACUAGGAGCACCAUUUCGCUGCCGGCGAAGAAAUGAACAAAGAAAGUCUGGGCCAGGCAGGCAUCAAAAGAAAUAGUCUUGCGCUCAACCAGAAAGUCUGUAAUCAUUUUAAGGGUA,0.55

row,Variant,self-cleavage
1,GUUAACGGUCAUAGGCCAUGGGAACUAGGAGCACCAUUUCGCUGCCAGUGAAGAAAUGAACAAAGAAAAUCUGGGCCAGGCAGGCAUCAAAAGAAAUAGUUUUGCGCUCAACCAGAAAGUCUGUAAUCACUUUAAGGGUA,0.19
2,GUUAACGGUCAUAGGCCAUGGAAACUAGGAGCACCAUUUCGCUGCCAGUGAAGAAAUGAACAAAGAAAAUCUGGGCCAGGCAGGCAUCAAAAGAAAUAGUCUUGCGCUCAGCCAGAAAGUCCGUAAUCAUUUUGAGGGUA,0
3,GUUAACGGUCAUAGGCCAUGGAAACUAGGGGCACCAUUUCGCUGCCAGUGAAGGAAUGAACAAAGAAAAUCUGGGCCAGGCAGGCAUCUAAAGAAAUAGUCUUGCGCUCAACCAGAAAGUCUGUAAUCAUUUUAAGGGUA,1.21
4,GUUAACGGUCAUAGGCCAUGGGAACUAGGAGCACCAUUUCGCUGCCAGUGAAGAAAUGAACAAAGAAAAUCUGGGCCAGGCAGGUAUCAAAAGAAAUAGUCUUGCGCUCAACCAGAAAGUCUGUAAUCACUUUAAGGGUA,0.78
5,GUUAACGGUCAUAGGCCAUGGAAACAAGGAGCACCAUUCCGCUGCCAGUGAAGAAAUGAACAAAGAAAGUCUGGGCCAGGCAGGCAUCAAAAGAAAUAGUCUUGCGCUCGACCAGAAAGUCUGUAAUCAUUUUAAGGGUA,0.08
6,GUUAACGGUCAUAGGCCAUGGAGACUAGGAGCACCAUUUCGCUGCCAGUGAAGAAAUGAACAAAGAAAAUCUGGGCCAGGCAGGCAUCAAAAGAAAUAGUCUUGCGCUCCACCAGAAAGUCUGUAACCAUUUUAAGGGUA,0.06
7,GUUAACGGUCAUAGGCCAUGGAAACUAGGAGCACCUUUUCGCUGCCAGUGAAGAAAUGAGCAAAGAAAUUCUGAGCCAGGCGGGCAUCGAAAGAAAUAGUCUUGCGCUCAACCAGAAAGUCUGUAAUCAUUUUAAGGGUA,0.08
8,GUUAACGGUCAUAGGCCAUGGAAACUAGGAGCGCCAUUUCGCUGCCAGUGAAGAAAUGAACAAAGAAGAUCUGGGCCAGGCAGGCAUCAAAAGAAAUAGUCUUGCGCUCAACCAGAAAGUCAGUAAUCAUUUUAAGGGUA,0.26
9,GUUAACGGUCAUAGGCCAUGGAAACUAGGAGCUCCAUCUCGCUGCCAGUGAAGAAAUGAAGAAAGAAAAUCUGGGCCAGGCAGGCAACUAAAGAAAUAGUCUUGCGCUCAACCAGAAAGUCUGUAAUCAUUUUAAGGGUA,1.39
10,GCUAACGGACAUAGGCCAUGGAAACUAGGAGCACCAUUUCGCUGCCAGUGAGGAAAUGAACAAAGAAAACCUGGGCCAGGCAGGCAUCAAAAGAAAUAGUCUUGCGCUCAACCAGAAAGUCUGUAAUCAUUUUAAGGGUA,0.65
11,GUUAACGGUCAUAGGCCAUGGAAACUAGGGGCACCGUUUCGCUGCCAGUGAAGAAAUGAACAAAGAAAAUCUGGGCCAGGCAGGCAUCAAAAGGAAUAGUCUUGCGCUCAACCGGAAAGUCUGUAAUCAUUUUAAGGGUA,1.33
12,GUUAACGGUCAUAGGCCAUGGAGACUAGGAGCACCAUUUCGCUGCCAGUGAAGAAGUGAACAAGGAAAAUCUGGGCCAGGCAGGCAUCAAAAGAAAUAGUCUUGCGCUCAACCAGAAAGUCUGUAAUCAUUUUAAGGGUA,0.39
13,GUUAACGGUCAUAGGCCAUGGAAACUAGAAGCACCAUUUCGCUGCCAGUGAAGAAAUGAACAUAGAAAAUUUGGGCCAGGCAGGCAUCAAAAGAAAUAGUCUUGCUCUCAACCAGAAAGUCUGUAAUCAUUUUAAGGGUA,0.05
14,GUUAACAGUCAUAGGCCAUGGAAACUAGGAGCACCAUUUCGCUGCCAGCGAAGAAAUGGACAAAGAAAAUCUGGGCCAGGCAGGCAUCAAAAGAAAUAGUCUUGCGCUCAUCCAGAAAGUCUGUAAUCAUUUUAAGGAUA,0.04
15,GUUAACGGUCAUAGGCCAUGGAAACUAGGAGCACCAUUUCGCCGCCAGUGAAGAAAUGAACAAAGAAAGUCUGGUCCAGGCAGGCAUCAAAAGAAAUAGUCUUGCGCUCAACCAGAAAGUCUGUAAUCAUUUUAAGGGUA,0.1
16,GUUAUCGGUCAUAGGCCACGGAAACUAGGAGCACCAUUUCGCUGCCAGCGAAGAAGUGAACAUAGAAAAUCUGGGCCGGGCAGGCAUCGAAAGAAGUAGUCUUGCGCUCAACCAGAAAGUCUGUAAUCAUUUUAAGGGUA,0.12
17,GUUAACGGUCAUAGGCCAUGGAAACUAGGAGCGCCAUUUCGCUGCCAGUGAAGAAAUGAACAAAGAAAAUCUGGGCCAGGCAGGCAUCAAGAGAAAUAGUCUUGCGCUCAACCAGAAGGUCUGUAAUCAUUUUAAGGGUA,0.16
18,GCUAACGGUCAUAGGCCAUGGAAACUAGGGGCACCAUUUCGCUGCCAGUGAAGAAAUGAGCAAAGAAGAUCUGGGCCAGGCAGGCAUCAAAAGAAAUAGCCUUGCGCUCAACCAGAAGGUCUGUAAUCAUUUUAGGGGUA,0
19,GUUAACGGUCAUAGGCCAUGGAAACUAGGAGCACCAUUUCGCUGCCAGUGAAGGAAUGAACAAAGAAAAUCUGGGCCAGGCAGGCAUAAAAAGGAAUAGUCUUGCGCUCAACCAGAAGGUCUGUAAUCAUUUUAAGGGUA,2.43
20,GUUAACGGUCAUAGGCCAUGGAAACUAGGAGCACCAUUUCGCCGCCAGUGAUGAAAUGAACAAAGAAAAUCUGGGCCAGGCAGGCAUCAAAAGAAAUGGUCUUGCGCUCAACCAGAAAGUCUGUAACCAUUUCAAGGGUA,0.23
